# Measured values reported in a collection of fitness landscapes (doi:10.1016/j.celrep.2020.107928).
# Over roughly 81,000 sequences, “one-hybrid fitness for binding NBS DNA” has its median near -0.1; the highest 2% begin near 0.36. The list shows a part of the results.
# B1: Caulobacter ParB omega fusion; a variant is named by its letters at X, in order, B8GW30 (parent)
# chain: MESVVVGEPGMSEGRRGLGRGLSALLGEVDAAPAQAPGEQLGGSREAPIEILQRNPDQPRRTFREEDLEDLSNSIREKGVLQPILVRPSPDTAGEYQIVAGERAWRAAQRAGLKTVPIMVRELDDLAVLEIGIIENVQRADLNVLEEALSYKVLMEKFERTQENIAQTIGKSXSHVANXMRLLXLPDEVQSYLVSGELTAXHARAIAAAADPVALAKQIIEGGLSVRETEALARKAPNLSAGKSKGGRPPRVKDTDTQALESDLSSVLGLDVSIDHRGSTGTLTITYATLEQLDDLCNRLTRGI
# Variants of: B1
# Experiment: one-hybrid fitness for binding NBS DNA (the Noc-binding site; scaled: cognate 1, non-cognate 0); higher = stronger binding
# Settings: with NBS DNA site
# Summary of the method: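 Caulobacter ParB libraries with four specificity codons randomised were screened by bacterial one-hybrid selection in the E. coli USO strain, using a HIS3 reporter whose site lies 19 bp from the promoter. Selection ran for 48 hours at 37°C on M9 lacking histidine, with 0.1 mM IPTG and 5 mM 3-AT. Plasmids were Illumina-sequenced before and after selection, three replicate libraries were pooled, and variants with under 10 reads were dropped. Fitness is the log change in each variant's read ratio to wild type, rescaled against the cognate and non-cognate sites.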
row,Variant,one-hybrid fitness for binding NBS DNA
1,WSVG,≤ 0.2
2,QRRC,0.489
3,LMDR,≤ 0.2
4,YKFS,≤ 0.2
5,PHRL,≤ 0.2
6,TISM,≤ 0.2
7,RFIC,≤ 0.2
8,YTDE,≤ 0.2
9,PDVA,≤ 0.2
10,VRIS,≤ 0.2
11,RHDS,≤ 0.2
12,KTGS,≤ 0.2
13,RWWF,≤ 0.2
14,SDSK,≤ 0.2
15,VYPM,≤ 0.2
16,TWER,≤ 0.2
17,GEDT,≤ 0.2
18,HGPE,≤ 0.2
19,NYYT,≤ 0.2
20,NSAK,≤ 0.2
21,TAWA,≤ 0.2
22,WSYR,≤ 0.2
23,SAME,≤ 0.2
24,HDSE,≤ 0.2
25,YAAP,≤ 0.2

row,Variant,one-hybrid fitness for binding NBS DNA
1,QSQP,≤ 0.2
2,RKSE,≤ 0.2
3,CFYG,≤ 0.2
4,QMQC,≤ 0.2
5,HLRA,≤ 0.2
6,YTVY,≤ 0.2
7,GIYS,≤ 0.2
8,ITSN,≤ 0.2
9,CNHN,≤ 0.2
10,IDLF,≤ 0.2
11,QVNL,≤ 0.2
12,ANNT,≤ 0.2
13,PQYD,≤ 0.2
14,QSGS,0.358
15,LAIW,≤ 0.2
16,QSWF,≤ 0.2
17,HIKI,≤ 0.2
18,HKPS,≤ 0.2
19,CGRG,≤ 0.2
20,GSQR,≤ 0.2
21,RLSP,≤ 0.2
22,ASVV,≤ 0.2
23,NYNV,≤ 0.2
24,QRDF,≤ 0.2
25,MQSA,≤ 0.2

row,Variant,one-hybrid fitness for binding NBS DNA
1,RFRQ,≤ 0.2
2,WFWG,≤ 0.2
3,SNSR,≤ 0.2
4,PWWC,≤ 0.2
5,QIHG,≤ 0.2
6,VKSV,≤ 0.2
7,GHGG,≤ 0.2
8,IANS,≤ 0.2
9,WPRF,≤ 0.2
10,ISLS,≤ 0.2
11,TEMY,≤ 0.2
12,PFLW,≤ 0.2
13,CAPS,≤ 0.2
14,RQNC,≤ 0.2
15,RQGL,≤ 0.2
16,YPAR,≤ 0.2
17,MSKT,≤ 0.2
18,HLYP,≤ 0.2
19,LRTV,≤ 0.2
20,ARQR,≤ 0.2
21,YMTT,≤ 0.2
22,PYAN,≤ 0.2
23,SKSQ,≤ 0.2
24,ARVL,≤ 0.2
25,YHKF,≤ 0.2

row,Variant,one-hybrid fitness for binding NBS DNA
1,QYMF,≤ 0.2
2,YVNL,≤ 0.2
3,VDWD,≤ 0.2
4,NDAR,≤ 0.2
5,MHVC,≤ 0.2
6,WFPY,≤ 0.2
7,MHPY,≤ 0.2
8,LSWK,≤ 0.2
9,HSEI,≤ 0.2
10,SVPA,≤ 0.2
11,IAPR,≤ 0.2
12,HALT,≤ 0.2
13,VRKV,≤ 0.2
14,SSHA,≤ 0.2
15,RPPG,≤ 0.2
16,LKTD,≤ 0.2
17,TDPW,≤ 0.2
18,HARV,≤ 0.2
19,LYGV,≤ 0.2
20,AGHK,≤ 0.2
21,ERHS,≤ 0.2
22,KRVM,≤ 0.2
23,WMWS,≤ 0.2
24,MSRI,≤ 0.2
25,VPLL,≤ 0.2

row,Variant,one-hybrid fitness for binding NBS DNA
1,SVSY,≤ 0.2
2,WIQL,≤ 0.2
3,KAEI,≤ 0.2
4,SKNT,≤ 0.2
5,MPPN,≤ 0.2
6,PHDC,≤ 0.2
7,QPCE,≤ 0.2
8,RPVL,≤ 0.2
9,RKEI,≤ 0.2
10,LCRC,≤ 0.2
11,KIHN,≤ 0.2
12,ESRS,≤ 0.2
13,CRRM,≤ 0.2
14,MHQS,≤ 0.2
15,DHRR,0.224
16,AKPR,≤ 0.2
17,RRFC,0.362
18,LALE,≤ 0.2
19,VSDK,≤ 0.2
20,AWHT,≤ 0.2
21,PKIL,≤ 0.2
22,FKSR,≤ 0.2
23,HLYD,≤ 0.2
24,AAPY,≤ 0.2
25,QGTA,≤ 0.2

row,Variant,one-hybrid fitness for binding NBS DNA
1,QLND,≤ 0.2
2,MNAV,≤ 0.2
3,LKNG,≤ 0.2
4,MLNC,≤ 0.2
5,NAVT,≤ 0.2
6,QRLC,0.294
7,APKY,≤ 0.2
8,RHWM,≤ 0.2
9,AFCG,≤ 0.2
10,RKSS,0.544
11,ATRY,≤ 0.2
12,TQWY,≤ 0.2
13,QKMR,0.51
14,CGSI,≤ 0.2
15,PGFD,≤ 0.2
16,NNQT,≤ 0.2
17,MMLT,≤ 0.2
18,PTAI,≤ 0.2
19,DNPA,≤ 0.2
20,QNLA,≤ 0.2
21,LERL,≤ 0.2
22,VSHN,≤ 0.2
23,QHAD,≤ 0.2
24,AEAL,≤ 0.2
25,PDHW,≤ 0.2

row,Variant,one-hybrid fitness for binding NBS DNA
1,RGQK,≤ 0.2
2,KYLT,≤ 0.2
3,PPHD,≤ 0.2
4,ISRF,≤ 0.2
5,QARP,0.24
6,DDIS,≤ 0.2
7,ENLR,≤ 0.2
8,PSSY,≤ 0.2
9,MPKP,≤ 0.2
10,GYNV,≤ 0.2
11,TEYR,≤ 0.2
12,RAEP,≤ 0.2
13,YETS,≤ 0.2
14,DRRA,≤ 0.2
15,DNDS,≤ 0.2
16,HMTE,≤ 0.2
17,FVGE,≤ 0.2
18,DSYV,≤ 0.2
19,VPLY,≤ 0.2
20,ITHM,≤ 0.2
21,DFYG,≤ 0.2
22,RSSP,≤ 0.2
23,QHMM,≤ 0.2
24,VPCK,≤ 0.2
25,HNLH,≤ 0.2

row,Variant,one-hybrid fitness for binding NBS DNA
1,GFRD,≤ 0.2
2,LGPF,≤ 0.2
3,REIW,≤ 0.2
4,TYNM,≤ 0.2
5,KIYT,≤ 0.2
6,RREW,≤ 0.2
7,GYYC,≤ 0.2
8,TKNA,≤ 0.2
9,KLAW,≤ 0.2
10,PICM,≤ 0.2
11,QYFE,≤ 0.2
12,MFHC,≤ 0.2
13,ANRY,≤ 0.2
14,NKSR,≤ 0.2
15,RQEC,≤ 0.2
16,HSFT,≤ 0.2
17,PILF,≤ 0.2
18,HVFT,≤ 0.2
19,SVRV,≤ 0.2
20,VADK,≤ 0.2
